Over roughly 110,000 compounds, “z-score” has its median near -0.1; the highest 2% begin near 2. This is one part of the list. Calls of active or inactive are those of the source.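 The calls were made as follows: active = z-score in the third read window above 3 or below -3; inactive = the rest.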

The assay concerns the target Metabotropic glutamate receptor 8 (Rattus norvegicus) (UniProt P70579). Kind of assay: rat mGluR8 modulators via GIRK flux, primary screen, cell-based, thallium flux, HTS (AID 488969). Conditions: HEK293 rat mGluR8, GIRK (G protein-gated inwardly rectifying potassium channel) thallium flux, FluoZin2; at 10 µM; stronger effect = higher value; submaximal glutamate (EC20) added with thallium.
UniProt P70579, sequence (P70579 whole entry, looked up): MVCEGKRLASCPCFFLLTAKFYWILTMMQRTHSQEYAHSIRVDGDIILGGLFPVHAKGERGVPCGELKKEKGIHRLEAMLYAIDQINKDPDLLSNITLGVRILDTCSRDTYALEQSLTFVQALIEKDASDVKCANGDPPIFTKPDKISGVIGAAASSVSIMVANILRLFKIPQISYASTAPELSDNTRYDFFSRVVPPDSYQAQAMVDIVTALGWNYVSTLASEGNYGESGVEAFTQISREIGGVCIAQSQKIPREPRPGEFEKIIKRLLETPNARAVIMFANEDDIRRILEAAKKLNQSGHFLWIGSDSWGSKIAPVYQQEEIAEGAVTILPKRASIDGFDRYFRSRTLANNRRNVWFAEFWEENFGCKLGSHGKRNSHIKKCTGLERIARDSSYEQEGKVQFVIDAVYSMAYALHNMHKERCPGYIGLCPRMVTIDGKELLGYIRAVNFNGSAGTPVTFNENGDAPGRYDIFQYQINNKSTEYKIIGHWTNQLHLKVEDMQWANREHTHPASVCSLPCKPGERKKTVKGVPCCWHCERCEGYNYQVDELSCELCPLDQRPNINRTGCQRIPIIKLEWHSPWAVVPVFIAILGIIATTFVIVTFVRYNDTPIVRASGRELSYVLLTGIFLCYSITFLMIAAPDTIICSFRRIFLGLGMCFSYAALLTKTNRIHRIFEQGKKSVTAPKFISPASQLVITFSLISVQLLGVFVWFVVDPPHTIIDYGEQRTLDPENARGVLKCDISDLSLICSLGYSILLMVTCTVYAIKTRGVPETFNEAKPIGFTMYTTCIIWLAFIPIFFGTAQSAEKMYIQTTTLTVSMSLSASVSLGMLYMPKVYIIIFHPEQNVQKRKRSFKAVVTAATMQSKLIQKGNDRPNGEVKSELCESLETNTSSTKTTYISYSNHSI
Regarding `CC(C)CNC(=O)c1ccccc1NC(=O)/C=C/c1cccc([N+](=O)[O-])c1`, the z-score was 0.151.

The molecule `O=S(=O)(NCC(c1cccnc1)N1CCN(c2ccccc2F)CC1)c1cccs1` (configuration not stated) returned a z-score of -0.0675.

On to `Cc1ccc(Cc2cnc(NC(=O)CN3CCOCC3)s2)cc1Cl`, for which the z-score was -0.317.

For the molecule `O=C1C2C(C(=O)N1/N=C/c1ccco1)C1C=CC2C12CC2` (configuration not stated), the z-score was -0.113.

Take `Cc1cc(=O)oc2cc(NC(=O)CCC(=O)O)ccc12`: the z-score is -0.108.

`COc1cc2cc(C(c3nnnn3C3CCCC3)N3CCCCCC3)c(=O)[nH]c2cc1OC` (configuration not stated) yielded a z-score of -0.601.

Take `CCOC(=O)C1CCCN(c2c(NCCN3CCCCC3C)c(=O)c2=O)C1` (configuration not stated): the z-score was 0.424.

Consider `O=C(/C=C/c1ccc(F)cc1)NCCc1ccc2c(c1)OCCO2`, for which the z-score is -0.0556.

Turning to `Cc1cc(C)cc(NC(=O)CN2CCCN(S(=O)(=O)c3ccc(Br)s3)CC2)c1`, the z-score is 0.0384.

Take `O=C(CSc1ncccn1)NCc1ccccc1Cl`: the z-score was 0.524.

Regarding `O=C(CSc1nc2cc3ccccc3cc2[nH]1)Nc1ccc(F)cc1`, the z-score is -0.112.

`Cc1ccc(SCc2cc(=O)n3[nH]cnc3n2)cc1` displayed a z-score of -0.616.

Consider `CSc1nc(NC(C)C)nc(N2CCOCC2)n1`, for which the z-score came out at 0.645.

`CCn1c(CSc2nc3ccccc3s2)n[nH]c1=S` had a z-score of 0.155.

Consider `Cc1ccc(OCC(=O)Nc2cccc3c2CCCC3)cc1C`, for which the z-score is -0.385.

Consider `COc1ccc(C(CNC(=O)C2CC(=O)N(Cc3ccc(C)cc3)C2)N(C)C)cc1` (configuration not stated), for which the z-score is -0.529.

`CCOC(=O)N1CCC(N2C(=O)c3ccccc3C2Nc2ccccc2C)CC1` (configuration not stated): the z-score worked out at 2.74.

`Cc1ccc(/C=C(\C#N)c2nc3ccccc3[nH]2)s1` came in with a z-score of -0.0719.

`O=C(Nc1ccc(N2CCN(c3ccc(O)cc3)CC2)cc1)Oc1ccccc1`: the z-score worked out at 0.0783.

Take `O=C(CSc1nnc(-c2ccccc2F)n1C1CC1)NC(=O)c1cccc([N+](=O)[O-])c1`: the z-score is -0.757.

In turn, `Cn1c(CO)nc2cc(N)ccc21` gave a z-score of 0.285.

As to `CC(=O)CN1Cc2ccccc2/C1=N\C(=O)Nc1ccccc1`, the z-score was active: 3.19.

Regarding `COc1ccccc1NC(=S)NCCN1CCOCC1`, the z-score came out at 0.187.

For `CCCn1c(SCC(=O)c2c[nH]c3ccccc23)nnc1-c1ccncc1`, the z-score was -0.22.

`CCOC(=O)c1c(C)nc2c(c(SC)nn2-c2ccccc2)c1N` came in with a z-score of -0.334.

In the case of `Cc1ccc2cc(CCNC(=O)c3ccc(Br)o3)c(=O)[nH]c2c1`, the z-score was -0.963.

Molecule `CC1C(c2ccccc2)N(C)C(c2ccccc2)C(C)C1(O)C#Cc1ccccc1` (configuration not stated) returned a z-score of -0.0784.

Take `Cc1ccc(N2CCN(C(=O)c3ccccc3)CC2)c(C)c1`: the z-score is -0.434.

The molecule `CCCOC(=O)C(C)n1c(-c2ccccc2)nc2ccccc2c1=O` (configuration not stated) showed a z-score of 0.0386.

In the case of `COc1ccc(C(=O)OCC(=O)NC(=O)CCSc2ccccc2)cc1`, the z-score came out at 0.0536.

Take `C[C@@H](C(=O)OCC(=O)Nc1cc(S(=O)(=O)N2CCOCC2)ccc1Cl)N1C(=O)C2CCCCC2C1=O` (some centres not stated): the z-score was determined as 0.333.

Regarding `CC(Oc1ccccc1)C(=O)Nc1ccccc1F` (configuration not stated), the z-score was -0.841.

`CC(NC(=O)OC(C)(C)C)C(=O)Oc1ccc2ccc(=O)oc2c1` (configuration not stated): the z-score is -0.43.

For `O=c1nc2ccccc2c2n1CC(CN1CCN(c3ccccc3F)CC1)N2` (configuration not stated), the z-score worked out at 0.222.

Molecule `CSCSC1=C(C#N)C(c2ccccc2Cl)C(C(C)=O)=C(C)N1` (configuration not stated) showed a z-score of -2.68.

The molecule `CC(=O)N1CCN(c2ccccc2NC(=O)c2cc(Br)ccc2Cl)CC1` came in with a z-score of 0.166.

Molecule `CC(C)(C)/C(O)=C/c1nc2ccccc2[nH]c1=O` returned a z-score of -0.317.

Molecule `COC(=O)c1ccc(COc2cccc3c2CCN(Cc2cccc(C)c2)C3=O)o1` had a z-score of -0.424.

As for `COc1ccc(NS(=O)(=O)c2cc(C)ccc2C)cc1`, the z-score was -0.157.

As for `O=C(Nc1ccncc1)c1cccc(F)c1`, the z-score was 0.415.

In turn, `CN(C)S(=O)(=O)c1ccc(C(=O)N2CCCC2c2nc3ccccc3s2)cc1` (configuration not stated) showed a z-score of 0.13.

`N/C(Cc1ccc([N+](=O)[O-])cc1)=N\OC(=O)C(c1ccccc1)c1ccccc1` registered a z-score of -0.547.

`CCOC(=O)N1CCN(C(=O)C2CCCN(S(=O)(=O)c3ccc(C)cc3)C2)CC1` (configuration not stated) displayed a z-score of 0.279.

In turn, `O=S1(=O)NC(=NCc2ccccc2)c2ccccc21` came in with a z-score of -0.152.

`OCC[n+]1ccc(/C=C/c2c[nH]c3ccccc23)cc1` came in with a z-score of -0.621.

With `Cc1ccc(C(=O)Nc2ccccc2Sc2ccccc2)cc1`, the z-score is -0.104.

In turn, `O=C(CN1CCC(n2nnc3ccccc32)CC1)Nc1ccc2c(c1)CCC2` yielded a z-score of -0.702.

Regarding `CC(/C=N/NC(=O)c1c(Br)cnn1C)=C\c1ccccc1`, the z-score was active: 3.16.

Regarding `COc1ccc(C(NC(=O)c2ccccc2F)NC(=O)c2ccccc2F)cc1`, the z-score was -0.342.

For `O=C(O)/C=C/C(=O)Nc1cccc(C(F)(F)F)c1`, the z-score was -0.096.

Molecule `C/C(Cl)=C/CSc1nn2c(=O)c3ccccc3nc2s1` came in with a z-score of 0.0556.

Take `O=C(NCCO)/C(=C\c1ccc2c(c1)OCO2)NC(=O)c1ccc(Br)cc1`: the z-score was -0.293.

The molecule `O=C1c2ccccc2C(=O)C1c1ccnc2ccccc12` had a z-score of -0.187.

With `CCC(CC)c1nnc(NC(=O)c2ccc(N3CCCC3=O)cc2)s1`, the z-score is 0.191.

`CCCC(=O)Nc1ccc(S(=O)(=O)N2CCOCC2)cc1` showed a z-score of 0.133.

As for `Cc1sc2nc(C3CC3)nc(SCC(=O)NCc3ccco3)c2c1C`, the z-score was 0.399.

Consider `O=C1CCc2cc(S(=O)(=O)N3CCCC3C(=O)NC3CCCCCCC3)ccc2N1` (configuration not stated), for which the z-score is -0.122.

The molecule `CCC(C(=O)Nc1cnccn1)c1ccccc1` (configuration not stated) returned a z-score of 0.435.

Molecule `Cc1ccc(CNC(=O)C(C)OC(=O)c2cccs2)cc1` (configuration not stated) showed a z-score of -0.177.

`CCCN(CCC)C(=O)c1cc(-c2ccc3c(c2)OCO3)nc2ccccc12` displayed a z-score of -0.399.

In the case of `CC(C)OC(=O)[C@H]1[C@H](c2ccc(Cl)cc2)[C@@](C#N)(C(N)=O)[C@@H]2C=CC(C(N)=O)=CN21`, the z-score came to 0.0606.

For `CN1CCN(c2ccccc2NC(=O)c2cc(Br)ccc2Cl)CC1`, the z-score was determined as 0.944.

Regarding `COc1ccc2c(=O)cc(-c3ccccc3)n(C)c2c1`, the z-score was -0.368.

In the case of `Cc1c(N2C(=O)c3ccc4c5c(ccc(c35)C2=O)CC4)c(=O)n(-c2ccccc2)n1C`, the z-score is -0.172.

Consider `CCOC(=O)N1CCN(C(=O)C2CCC(=O)N2C(C)C)CC1` (configuration not stated), for which the z-score is -0.285.

Molecule `CN(C)c1ccc(/C=N/NC(=O)c2ccco2)cc1` showed a z-score of 0.819.

Molecule `O=C(O)Cn1cc(C(=O)c2ccco2)c2ccccc21` registered a z-score of -0.378.

On to `COc1ccc(CCNC(=O)CC2Nc3ccccc3NC2=O)cc1OC` (configuration not stated), for which the z-score is -0.291.

Molecule `Cc1ccccc1N1C(=O)C2C3CC(=O)C(c4ccccc43)C2C1=O` (configuration not stated) came in with a z-score of -0.248.

For the molecule `CCNC(=O)OCC(CC)NC(=O)OCC(C)C` (configuration not stated), the z-score was -0.305.

`CCOc1ncccc1C(=O)N(C)CC(=O)Nc1ccc(F)cc1` displayed a z-score of 0.103.

For `O=c1[nH]c(CN2CCN(c3ccccc3O)CC2)nc2ccccc12`, the z-score is -0.0786.

The molecule `O=C(Nc1nc2ccc(S(=O)(=O)N3CCCC3)cc2s1)c1ccco1` came in with a z-score of -0.299.

On to `N#Cc1ccccc1CSc1ccccn1`, for which the z-score is 0.253.

Take `COc1cccc(NC(=O)CN2C(=O)COc3ccc(Cl)cc32)c1`: the z-score amounted to 0.129.

`CCOC(=O)C1CCCN(C(=O)/C=C/c2ccc([N+](=O)[O-])cc2)C1` (configuration not stated) yielded a z-score of -0.161.

In turn, `COc1ccc(-n2cnnc2SCC(=O)Nc2cc(S(=O)(=O)N3CCCCC3)ccc2C)cc1` returned a z-score of 0.371.

`CCOC(=O)c1ccccc1Cc1nc2ccccc2c(=O)[nH]1` registered a z-score of -0.605.

With `C=CCn1c(COc2ccc(F)cc2)nnc1SCC(=O)c1c[nH]c2c(CC)cccc12`, the z-score is -0.748.

`O=C(Nc1ccccc1C(=O)N1CCN(c2ccccc2)CC1)c1ccco1` displayed a z-score of -0.223.

In the case of `Cc1ccc(S(=O)(=O)Cn2nnnc2CN(Cc2ccco2)Cc2cccs2)cc1`, the z-score was determined as 0.0681.

Regarding `CCOC(=O)Cc1csc(NC(=O)C2C3C=CC(C3)C2C(=O)O)n1` (configuration not stated), the z-score was -0.0933.

`COC(=O)C1C(=O)C2=C(CC1C)NC(=O)CC2c1ccccc1` (configuration not stated) gave a z-score of -0.113.

On to `Cc1ccc(/C=C/C(=O)O)cc1S(=O)(=O)NCCCO`, for which the z-score is -0.00281.

In turn, `N#Cc1ccccc1NC(=O)CSc1nccn1CCc1ccccc1` returned a z-score of -0.52.

Molecule `COCCn1c(C)cc(C(=O)CSc2nc(C)nc3sc4c(c23)CCC4)c1C` displayed a z-score of 0.18.

As to `O=c1c(Cl)c(N2CCN(S(=O)(=O)c3ccccc3)CC2)cnn1-c1ccccc1`, the z-score is -0.079.

In the case of `Cc1c(CCO)c(=O)n(-c2ccccc2)n1S(=O)(=O)c1c(Cl)cc(Cl)cc1Cl`, the z-score was found to be 0.632.

On to `COC(=O)c1sccc1NC(=O)Cc1ccc(Br)cc1`, for which the z-score is -0.0914.

`CCOC(=O)C(C)N1C(=O)S/C(=C/c2cc(C)n(-c3ccccn3)c2C)C1=O` (configuration not stated) had a z-score of -0.364.

`O=C(OC1CCCCC1=O)c1cccc(S(=O)(=O)NCc2ccccc2)c1` (configuration not stated) returned a z-score of -0.182.

On to `CCOC(=O)c1nnn(-c2nonc2N)c1CN(CC)c1ccccc1`, for which the z-score is -0.502.

Molecule `COCCNC(=O)COc1ncnc2ccc(Br)cc12` gave a z-score of -0.444.

Turning to `CCN(C(=O)CSc1nnc(Cn2nnc3ccccc32)o1)c1nc(-c2ccccc2)cs1`, the z-score was -0.3.

Consider `CN1CCN(C2=C(Cl)C(=O)N(CCc3ccccc3)C2=O)CC1`, for which the z-score was -0.0292.

Molecule `CCOC(CNC(=O)c1ccc(N2CCc3ccccc32)c([N+](=O)[O-])c1)OCC` yielded a z-score of -0.884.

Molecule `O=C(N/C=C/c1ccccc1)Nc1ccc(Cl)cc1` came in with a z-score of -0.132.

In the case of `Cc1oc2c(CN3CCCC3)c(O)ccc2c(=O)c1-c1ccccc1`, the z-score came out at 0.23.

`COc1ccc(C(=O)c2ccc(OC)c(N)c2)cc1N` yielded a z-score of 0.346.

Molecule `Cc1ccc(NC(=O)CSc2ccc(-c3ccc4c(c3)OCO4)nn2)cc1F` came in with a z-score of -0.264.

Take `O=S(=O)(/N=C(/c1ccccc1Cl)N1CCOCC1)c1ccccc1`: the z-score was 0.284.

Consider `COc1ccc(Br)cc1/C(C)=N/NC1=NCCN1`, for which the z-score is 0.905.

In turn, `CC(/C=N/Nc1nc(N2CCCCC2)nc(N2CCCCC2)n1)=C\c1ccccc1` gave a z-score of -0.494.

With `Cn1c(C(=O)NCC2CCCO2)cc2c(=O)n3ccccc3nc21` (configuration not stated), the z-score amounted to 0.237.

In turn, `CC(C)n1nnc2ccccc2c1=O` gave a z-score of -0.0751.

Consider `O=C(NCc1ccc(Cl)cc1)c1ccc2nc[nH]c2c1`, for which the z-score was -0.237.

With `CCCn1nnnc1SCC(=O)c1ccc2c(c1)OCCO2`, the z-score was 0.105.

The molecule `O=C(Oc1cccc(/C=N/Nc2nc(Nc3ccccc3)nc(N3CCOCC3)n2)c1)c1ccco1` returned a z-score of -0.146.

`C/C(=N/NC(=O)CNc1ccc(C)cc1)c1ccc(Br)s1` displayed a z-score of 0.214.

In the case of `CCC(=O)Nc1ccc(C(=O)NNC(=O)c2cccs2)cc1`, the z-score was -0.0896.

For `COC(=O)c1ccccc1NC(=O)C1CCCCC1C(=O)O` (configuration not stated), the z-score was -0.474.

`O=C(CCCN1C(=O)c2ccccc2C1=O)N1CCN(c2ccccn2)CC1` yielded a z-score of 0.451.

The values are drawn from PubChem BioAssay AID488969 (Vanderbilt High Throughput Screening Facility, 2010).
